Screen size: about 310,000 compounds; about 2,200 (0.71%) showed an effect of 50% or more. The effect is printed as a negative number. Some of the results follow.
What follows are compounds tested against human ether-à-go-go-related gene (hERG) potassium channel (human, UniProt Q12809) (assay: primary screen, population patch clamp on CHO cells stably expressing hERG).
Sequence of human ether-à-go-go-related gene (hERG) potassium channel (Q12809 whole entry, looked up): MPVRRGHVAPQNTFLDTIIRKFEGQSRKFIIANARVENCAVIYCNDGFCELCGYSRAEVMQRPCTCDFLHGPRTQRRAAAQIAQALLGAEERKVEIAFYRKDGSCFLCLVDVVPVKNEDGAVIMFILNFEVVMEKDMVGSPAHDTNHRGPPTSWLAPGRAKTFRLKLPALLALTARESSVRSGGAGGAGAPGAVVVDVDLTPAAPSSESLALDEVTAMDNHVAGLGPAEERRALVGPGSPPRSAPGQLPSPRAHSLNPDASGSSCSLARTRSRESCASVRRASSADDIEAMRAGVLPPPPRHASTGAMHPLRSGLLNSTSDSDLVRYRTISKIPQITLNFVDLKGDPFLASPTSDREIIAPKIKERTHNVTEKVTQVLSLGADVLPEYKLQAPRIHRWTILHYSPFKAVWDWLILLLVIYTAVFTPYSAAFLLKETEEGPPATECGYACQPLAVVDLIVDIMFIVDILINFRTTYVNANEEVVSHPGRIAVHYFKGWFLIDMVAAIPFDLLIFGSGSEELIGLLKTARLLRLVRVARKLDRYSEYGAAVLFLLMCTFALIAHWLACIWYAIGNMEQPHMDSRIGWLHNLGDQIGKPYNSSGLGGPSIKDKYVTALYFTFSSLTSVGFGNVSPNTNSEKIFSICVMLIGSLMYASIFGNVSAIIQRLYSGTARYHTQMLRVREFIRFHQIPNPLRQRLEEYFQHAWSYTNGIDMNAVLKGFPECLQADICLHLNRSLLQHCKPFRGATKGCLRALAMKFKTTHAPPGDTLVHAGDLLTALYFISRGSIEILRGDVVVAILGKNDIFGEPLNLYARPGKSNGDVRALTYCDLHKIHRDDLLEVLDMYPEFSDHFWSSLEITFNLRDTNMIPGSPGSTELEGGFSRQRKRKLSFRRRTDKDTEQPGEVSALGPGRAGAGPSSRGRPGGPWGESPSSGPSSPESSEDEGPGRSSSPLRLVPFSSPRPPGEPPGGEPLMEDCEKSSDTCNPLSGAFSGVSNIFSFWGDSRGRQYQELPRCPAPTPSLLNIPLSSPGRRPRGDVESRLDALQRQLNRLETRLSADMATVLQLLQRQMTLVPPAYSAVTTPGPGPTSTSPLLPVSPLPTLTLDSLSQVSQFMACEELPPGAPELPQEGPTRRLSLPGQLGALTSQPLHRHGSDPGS

Row | Structure (SMILES) | hERG current change (%, negative = inhibition) at 1uM
1 | Cc1n[nH]c(C)c1CN(C)C(=O)C1CCC(=O)N(CC2CCCCC2)C1 (stereo not shown) | 2.33%
2 | CCOC(=O)N1CCC(N(C(=O)Nc2ccccc2)C(C)CC)CC1 (stereo not shown) | 10.4%
3 | Cc1onc(C(=O)N2CCC(Cc3ccccc3)CC2)c1[N+](=O)[O-] | 10.9%
4 | O=c1oc2cc(Oc3ccc(C(F)(F)F)cc3[N+](=O)[O-])ccc2c2c1CCCC2 | 7.24%
5 | Cn1cccc1/C=N/NC(=O)c1ccc(OC(F)(F)C(F)F)cc1 | 3.65%
6 | CCOc1cccc(C(=O)Nc2nnc(-c3ccco3)s2)c1 | 1.95%
7 | COCCn1c(=NC(=O)CCS(=O)(=O)c2ccccc2)sc2cc(C(=O)OC)ccc21 | 16.1%
8 | O=S(=O)(Nc1ccccn1)c1ccc(Oc2ccccc2)cc1 | -27.4%
9 | CN(C)S(=O)(=O)c1ccc(C(=O)NCc2ccco2)cc1 | 12%
10 | COc1ccccc1OC(C)C(=O)NNC(=S)NC1CCCC1 (stereo not shown) | 9.39%
11 | COc1cc(/C=N/N(C)C)cc(Br)c1O.O=P(O)(O)O | 4.43%
12 | CN(c1ccc(C(=O)NCCSC(C)(C)C)cc1)S(C)(=O)=O | 7.29%
13 | O=c1oc2ccccc2n1Cc1ccccc1F | 13.3%
14 | O=C(CC1C(=O)NCCN1Cc1ccccc1C(F)(F)F)NCCc1ccccn1 (stereo not shown) | 9.45%
15 | Cc1csc(NC(=O)CCc2c(C)nc3cc(-c4cccc(F)c4)nn3c2C)n1 | 3.64%
16 | CC(=O)Nc1ccc(S(=O)(=O)N(C)CC(=O)N/N=C/c2ccc(C(=O)O)cc2)cc1 | 14.3%
17 | CCOC(=O)C(CC(=O)O)=C(c1ccccc1)c1ccccc1 | 19.2%
18 | CCOc1ccc(N2C(=O)Nc3ccccc3C2(O)C(=O)NCc2ccc(C)cc2)cc1 (stereo not shown) | 11.2%
19 | CNC(=O)c1c(NC(=O)c2cccc(N3C(=O)CCC3=O)c2)sc2c1CCC2 | 16.7%
20 | CCc1ccc(C2CC(=O)NC(SCC(=O)OC(C)C)=C2C#N)cc1 (stereo not shown) | 7.68%
21 | CC(=O)c1ccc(N2CCN(C(=O)Nc3cccc(F)c3)CC2)cc1 | 8.82%
22 | O=C(Nc1nc2ccccc2[nH]1)C1CCN(C(=O)c2ccc(F)cc2)CC1 | -12.9%

Row | Structure (SMILES) | hERG current change (%, negative = inhibition) at 1uM
23 | CC1CCN(S(=O)(=O)N2CCN(C(=O)c3ccc4c(c3)OCO4)CC2)CC1 | 2.75%
24 | COc1cc(/C=N/NC(=O)CSc2nc3ccccc3n2C)cc(OC)c1OC | 4.62%
25 | Cc1ccc2c(c1)CNc1ccccc1O2 | -11.7%
26 | COC(=O)C(O)(NC(=O)NC(C)=O)C(F)(F)F (stereo not shown) | 8.26%
27 | O=C1CCCN1CCCNc1ncccc1[N+](=O)[O-] | 13.4%
28 | Cc1ccccc1CN1C(=O)c2ccccc2Sc2ccc(C(=O)NCCCN3CCOCC3)cc21 | 5.5%
29 | Cc1ccc(CSc2nnc(-c3ccncc3)n2C)cc1 | 5.72%
30 | O=C(c1ccc(-n2cncn2)c([N+](=O)[O-])c1)N1CCN(S(=O)(=O)c2ccc(Br)cc2)CC1 | -33%
31 | CCCSC1=C(C#N)C(c2ccccc2C)CC(=O)N1 (stereo not shown) | 6.7%
32 | Cc1ccc(N2CC(C(=O)Nc3ccc(S(=O)(=O)NCC4CCCO4)cc3)CC2=O)cc1C (stereo not shown) | 13.9%
33 | O=C(CSc1nnc(-c2ccccc2)o1)N1CCCC1 | 14.5%
34 | CC(=O)[C@H]1CC[C@H]2[C@@H]3CCC4=CC(=O)CC[C@]4(C)[C@H]3[C@H](O)C[C@]12C | 2.12%
35 | COc1ccc(/C=C/C(=O)O/N=C(\N)c2ccccc2)cc1OC | -3.48%
36 | CCN(CC)C(=O)Oc1ccc(Br)cc1C(=O)Nc1ccc(F)c(Cl)c1 | 7.09%
37 | CN(C)S(=O)(=O)c1cccc(NC(=S)NC23CC4CC(CC(C4)C2)C3)c1 | 14%
38 | CCC(=O)N1CCN(c2nc(-c3ccc(Cl)cc3)cs2)CC1 | 9.84%
39 | CCCCCN(C(=O)CCC(=O)OCC(=O)N(C)C1CCCCC1)c1c(N)n(CCCC)c(=O)[nH]c1=O | 6.87%
40 | Cc1ccc(N(C(=O)CCC(=O)Nc2nccs2)C(C(=O)NC(C)(C)C)c2ccc(O)cc2)cc1 (stereo not shown) | 9.59%
41 | Cc1ccc(C(C(=O)NC2CCCCC2)N(C(=O)c2csnn2)C2CC2)cc1 (stereo not shown) | -1.47%
42 | O=C(N/N=C/C=C/c1ccco1)c1cccnc1 | 8.42%
43 | Cc1ccc(CS(=O)(=O)CCC(=O)NCc2cccs2)cc1 | 0.172%
44 | CCCCCCCCN=C1NC(=O)CS1 | -3.77%

Row | Structure (SMILES) | hERG current change (%, negative = inhibition) at 1uM
45 | CC(C)c1ccc(NC(=O)C(c2ccc3c(c2)OCO3)N2CCN(C(=O)c3ccco3)CC2)cc1 (stereo not shown) | 6.41%
46 | CCCn1c(SCC(=O)Nc2cccc(S(=O)(=O)N(C)C)c2)nc2ccccc2c1=O | 5.64%
47 | COCCCNS(=O)(=O)c1ccc(Cl)c(C(F)(F)F)c1 | -1.22%
48 | O=C(Cc1ccc(Cl)cc1Cl)Nc1ccc(OC(F)F)c(Cl)c1 | 11.8%
49 | COc1ccccc1NS(=O)(=O)c1cccc(C(=O)NN)c1 | -7.12%
50 | CCCOc1ccc(C(=O)NCCO)cc1 | 15%
51 | O=C(O)C(c1ccccc1)N1C(=O)/C(=C\c2ccc(-c3ccccc3Cl)o2)SC1=S (stereo not shown) | 10.3%
52 | O=C(Nc1nccs1)C1CCN(S(=O)(=O)c2cccnc2)CC1 | 5.21%
53 | COC(=O)C(O)(c1ccc(NC(=O)c2ccco2)c(OC)c1)C(F)(F)F (stereo not shown) | 4.21%
54 | O=C(NCCc1csc(-c2cccnc2)n1)c1cccc2ccccc12 | 7.67%
55 | O=C(N/N=C(\c1ccccc1)c1cccnc1)C(O)(c1ccccc1)c1ccccc1 | -7.26%
56 | Cc1cc(C)c(C#N)c(SCC(=O)OC2CCCCC2)n1 | 9.28%
57 | CC(=O)c1ccc(N2CCN(C(=O)c3ccc4ccccc4n3)CC2)cc1 | 2.86%
58 | COc1ccc(CCNC(=O)c2cc(-c3cccs3)on2)cc1OC | 1.31%
59 | C=CCOc1ccc2oc(=O)cc(C)c2c1 | 4.53%
60 | O=C(OCCOc1ccccc1)c1cc(S(=O)(=O)N2CCOCC2)ccc1Cl | -4.2%
61 | CC(C)N1C(=O)C2C(c3ccccc3O)NC(C)(C(=O)O)C2C1=O (stereo not shown) | 2.56%
62 | N#Cc1c(NC(=O)CSc2n[nH]c(N)n2)oc(-c2ccccc2)c1-c1ccccc1 | -1.07%
63 | O=C1Nc2ccc(Cl)cc2C(=O)C1(F)c1ccccc1 (stereo not shown) | -1.25%
64 | Cc1ccccc1CCNC(=O)C1CCCN(c2cnccn2)C1 (stereo not shown) | 13.6%
65 | O=C(OCCN1C(=O)c2ccccc2C1=O)c1cc(S(=O)(=O)N2CCOCC2)ccc1Cl | 10.1%
66 | CN(C)N=Nc1ccc(S(=O)(=O)/N=C(\[O-])c2ccccc2)cc1.[K+] | 13%

Row | Structure (SMILES) | hERG current change (%, negative = inhibition) at 1uM
67 | COc1ccc(/C=C2\CCCC3C2=NN(C(=O)c2scnc2C)C3c2ccc(OC)c(OC)c2)cc1OC (stereo not shown) | 17.9%
68 | N#Cc1ccccc1NC(=O)CNc1ccc(Cl)c(C(F)(F)F)c1 | 7.67%
69 | Cc1cccc(C)c1NC(=O)CSc1nnc(-c2ccco2)c(-c2ccco2)n1 | -13.6%
70 | Cc1cc[n+](CC(=O)c2cccs2)cc1.[Br-] | 12%
71 | CC(=O)c1sc(NC(=O)CS(=O)(=O)c2ccccc2)nc1-c1ccccc1 | 11.4%
72 | O=C1N(c2ccccc2)C(c2ccc(Cl)cc2)N2CCCN12 (stereo not shown) | 7.99%
73 | C=CCNC(=S)Nc1cc(Cl)ccc1OC | 13.1%
74 | CC(=O)c1c(C)[nH]c(C(=O)OCC(=O)Nc2sc3c(c2C#N)CCCC3)c1C | 16.3%
75 | CC(C)(C)c1cn(-c2ccccc2)c(=S)[nH]1 | 16%
76 | CC1(C)Cc2c(c(-c3ccccc3)[nH]c(=O)c2C#N)CO1 | 8.34%
77 | O=C(Nc1c(C(=O)N2CCCC2)cnn1-c1ccccc1)c1cccc(F)c1 | 10.2%
78 | CC1CCCCN1C(=O)c1ccccc1NC(=O)c1ccco1 (stereo not shown) | 9.72%
79 | O=C(CN1C(=O)NC2(CCCc3ccccc32)C1=O)Nc1cccc(S(=O)(=O)N2CCCCC2)c1 (stereo not shown) | 19.3%
80 | CCC(=C/c1sc2ccc3ccccc3c2[n+]1C)/C=C1\Sc2ccc3ccccc3c2N1C.[Cl-] | 7.07%
81 | COc1ccc(CNC(=O)C(c2cccs2)N(C(=O)c2csnn2)C2CC2)cc1 (stereo not shown) | 7.37%
82 | COC(=O)c1c(NC(=O)COC(=O)c2ccc(C)s2)sc2c1CCCCC2 | 11%
83 | COc1ccccc1C(=O)NC(=O)COC(=O)C1CC1C (stereo not shown) | 3.94%
84 | CC(=O)c1ccc(N2CCC(C)CC2)c(F)c1 | 17.4%
85 | O=C(NCc1ccc(N2CCCC2=O)cc1)Nc1cccc2ccccc12 | -1.78%
86 | COc1ccc(-c2cc(CCCC(=O)NCc3ccccn3)no2)cc1 | 8.27%
87 | Cc1cc(C)nc(N2CCCC(C(=O)NNC(=O)c3ccncc3)C2)n1 (stereo not shown) | 7.59%
88 | CC(=O)N=c1sc(C(C)(C)C)c(C)n1C | 2.16%
